According to the antibiotic and cytotoxicity screens of Wong et al. (2023):
This is one part of the list.

Experiments:
HSkMC = human skeletal muscle cells; test: cytotoxicity call (relative viability < 0.9); conditions: 10 µM
HepG2 = test: cytotoxicity call (relative viability < 0.9); conditions: 10 µM
S. aureus RN4220 = test: growth inhibition call (relative growth <= 0.2); conditions: 50 µM

SMILES	cytotoxicity call (HSkMC)	cytotoxicity call (HepG2)	growth inhibition call (S. aureus RN4220)
O=C(C[C@H]1CC[C@H]2[C@@H](COC[C@H](O)CN2C(=O)Nc2cc(Cl)cc(Cl)c2)O1)N1CCOCC1	inactive	inactive	inactive
C[C@H](CO)N1C[C@H](C)[C@H](CN(C)Cc2ccc(Cl)c(Cl)c2)Oc2ccc(NC(=O)Cc3ccccc3)cc2C1=O	inactive	inactive	inactive
CCS(=O)(=O)N1C[C@]2(CN(Cc3cc(ccc3F)F)[C@@H](CO)c3c2c2ccc(cc2n3C)OC)C1	inactive	inactive	inactive
C[C@@H]1CCCCO[C@H](CN(C)C(=O)c2ccccc2)[C@H](C)CN([C@@H](C)CO)C(=O)c2cc(NC(=O)CCCCCC(=O)Nc3ccccc3N)ccc2O1	inactive	inactive	inactive
C[C@@H]1CN([C@H](C)CO)C(=O)Cc2cc(NC(=O)Cn3cnnn3)ccc2O[C@@H]1CN(C)Cc1ccc2c(c1)OCO2	inactive	inactive	inactive
C[C@@H]1CCCCO[C@@H](CN(C)S(=O)(=O)c2ccc(F)cc2)[C@@H](C)CN([C@@H](C)CO)C(=O)c2cc(NC(=O)Nc3ccc(F)cc3)ccc2O1	inactive	active	inactive
Cc1noc(C)c1NC(=O)N(C)C[C@H]1Oc2c(NC(=O)Nc3ccc(C(F)(F)F)cc3)cccc2C(=O)N([C@@H](C)CO)C[C@H]1C	inactive	active	inactive
Cc1ccc(S(=O)(=O)Nc2ccc3c(c2)C(=O)N([C@@H](C)CO)C[C@H](C)[C@@H](CN(C)S(=O)(=O)c2ccc(F)cc2)O3)cc1	inactive	inactive	inactive
C[C@H]1CN([C@@H](C)CO)C(=O)CCCn2nncc2CO[C@@H]1CN(C)S(=O)(=O)c1ccccc1C#N	inactive	inactive	inactive
C[C@H]1CN([C@@H](C)CO)C(=O)c2cc(NC(=O)Nc3ccccc3)ccc2O[C@H]1CN(C)S(C)(=O)=O	inactive	inactive	inactive
COc1ccc(NC(=O)Nc2ccc3c(c2)C(=O)N([C@H](C)CO)C[C@H](C)[C@@H](CN(C)Cc2ccc(Oc4ccccc4)cc2)O3)cc1	inactive	active	inactive
COc1ccc(S(=O)(=O)N(C)C[C@H]2OCCCC[C@H](C)Oc3ccc(NS(=O)(=O)c4cn(C)cn4)cc3C(=O)N([C@@H](C)CO)C[C@H]2C)cc1	active	inactive	inactive
Cc1ccc(S(=O)(=O)N[C@@H]2CC[C@H](CCNC(=O)CN3CCOCC3)O[C@H]2CO)cc1	inactive	inactive	inactive
CC(=O)Nc1nnc2n1CCS2	inactive	inactive	inactive
C=CC(C)(O)CCC1C(=C)CC(OC(C)=O)C2C(C)(C)CCCC12C (configuration not stated)	inactive	inactive	inactive
CNC(=O)[C@@H](NC(=O)[C@H](CC(C)C)[C@H](O)C(=O)NO)C(C)(C)C	inactive	inactive	inactive
C[C@@H]1CCCCO[C@H](CN(C)S(=O)(=O)c2ccccc2)[C@H](C)CN([C@H](C)CO)C(=O)c2cc(NS(C)(=O)=O)ccc2O1	inactive	inactive	inactive
C[C@@H]1CN([C@H](C)CO)C(=O)c2cc(NS(=O)(=O)c3cn(C)cn3)ccc2O[C@H]1CN(C)Cc1ccccc1	inactive	inactive	inactive
O=C1O[C@H](c2ccccc2)[C@H](c2ccccc2)N2[C@H]1[C@@H](C(=O)Nc1nc3ccccc3s1)[C@]1(C(=O)Nc3ccc(C#CCCO)cc31)[C@H]2c1ccccc1OCCO	inactive	inactive	inactive
CC(C)[C@@H](CO)N1C(=O)[C@@H]2[C@H]3C(=O)OCCC/C=C\[C@H]3O[C@]23C=CCN(CCN2CCOCC2)C(=O)[C@@H]13	inactive	inactive	inactive
C[C@H](CO)N1C[C@H](C)[C@H](CN(C)Cc2ccncc2)Oc2ccc(NC(=O)c3ccncc3)cc2CC1=O	inactive	inactive	inactive
O=C(C[C@H]1CC[C@H]2[C@@H](COC[C@@H](O)CN2S(=O)(=O)c2ccc(Oc3ccccc3)cc2)O1)NCCN1CCCCC1	inactive	inactive	inactive
C[C@H]1CN([C@@H](C)CO)C(=O)c2cccc(NC(=O)NC3CCCCC3)c2O[C@@H]1CN(C)Cc1ccc(Cl)c(Cl)c1	inactive	inactive	inactive
CC(C)NC(=O)Nc1ccc2c(c1)C(=O)N([C@@H](C)CO)C[C@H](C)[C@H](CN(C)S(=O)(=O)c1cccs1)O2	inactive	inactive	inactive
Cc1ccc(S(=O)(=O)N(C)C[C@H]2OCCCC[C@@H](C)Oc3ccc(NC(=O)c4ccccc4)cc3C(=O)N([C@H](C)CO)C[C@@H]2C)cc1	inactive	inactive	inactive
Cc1noc(C)c1NC(=O)N(C)C[C@H]1Oc2cc(C#CCN(C)C)ccc2S(=O)(=O)N([C@H](C)CO)C[C@H]1C	inactive	inactive	inactive
CN(C)CC(=O)N1[C@@H]2Cn3c(ccc(-c4cccnc4)c3=O)[C@H]1[C@@H](C(=O)NC1CCC1)[C@@H]2CO	inactive	inactive	inactive

SMILES	cytotoxicity call (HSkMC)	cytotoxicity call (HepG2)	growth inhibition call (S. aureus RN4220)
C[C@H](CO)N1C[C@H](C)[C@H](CN(C)S(=O)(=O)c2ccc(Cl)cc2)Oc2ccc(NC(=O)CCCN(C)C)cc2C1=O	inactive	inactive	inactive
COc1cc(C(=O)NCc2ccc(OCCN(C)C)cc2)cc(OC)c1OC.Cl	inactive	inactive	inactive
CN1CCN(C(=O)[C@@H]2[C@@H](CO)[C@@H]3Cn4c(ccc(C5=CCCC5)c4=O)[C@H]2N3S(C)(=O)=O)CC1	inactive	inactive	inactive
C[C@@H]1CN([C@H](C)CO)C(=O)c2cc(NC(=O)CCC(F)(F)F)ccc2O[C@H]1CN(C)Cc1ccc(Oc2ccccc2)cc1	inactive	inactive	inactive
O=C1NC[C@@H](c2ccccc2)OC(=O)[C@H](Cc2ccc(F)cc2)CCC=CC[C@@H]1CC(=O)N(CCO)Cc1ccccc1	inactive	inactive	inactive
C[C@@H]1CN([C@H](C)CO)C(=O)c2cc(NC(=O)c3ccccc3)ccc2O[C@@H](C)CCCCO[C@@H]1CN(C)S(=O)(=O)c1ccccc1	inactive	inactive	inactive
COCC(=O)N1C[C@@H](C)[C@H](OC)CN(C)C(=O)c2ccc(NC(=O)Nc3cccc(F)c3)cc2OC[C@H]1C	inactive	inactive	inactive
C[C@H]1CN([C@@H](C)CO)S(=O)(=O)c2ccc(C#Cc3cccc(F)c3)cc2O[C@H]1CN(C)S(=O)(=O)c1cn(C)cn1	inactive	inactive	inactive
COCCOC(=O)N1C(=O)[C@@]2(c3cc(C#CC4(O)CCCCCC4)ccc31)[C@H](c1ccc(OCCO)cc1)N1[C@H](c3ccccc3)[C@H](c3ccccc3)OC(=O)[C@H]1[C@@H]2C(=O)N1CCN(c2ncccn2)CC1	inactive	inactive	inactive
CC(C)NC(=O)N(C)C[C@@H]1Oc2ccc(NC(=O)CCCN(C)C)cc2CC(=O)N([C@@H](C)CO)C[C@H]1C	inactive	inactive	inactive
Cn1cc(C(=O)N2CC[C@H]3[C@@H]2CCN3S(C)(=O)=O)cn1	inactive	inactive	inactive
COc1ccccc1CNC(=O)C[C@H]1CC[C@@H]2[C@H](COC[C@H](O)CN2C(=O)Nc2ccc(F)cc2)O1	inactive	inactive	inactive
O=C(C[C@@H]1CC=CCCC(=O)OC[C@@H](Cc2c[nH]c3ccccc23)NC1=O)N[C@H](CO)Cc1ccccc1	inactive	inactive	inactive
C[C@@H]1CN([C@H](C)CO)S(=O)(=O)c2ccc(-c3cncnc3)cc2O[C@@H]1CN(C)C(=O)C1CCCCC1	inactive	inactive	inactive
C[C@H]1CN([C@@H](C)CO)C(=O)c2cc(C#CC(C)(C)O)cnc2O[C@H]1CN(C)C(=O)CN(C)C	inactive	inactive	inactive
C[C@H]1CN([C@@H](C)CO)C(=O)c2cccc(NS(=O)(=O)c3ccc(F)cc3)c2O[C@@H]1CN(C)Cc1ccc(Oc2ccccc2)cc1	inactive	inactive	inactive
C[C@H](CO)N1C[C@H](C)[C@@H](CN(C)C(=O)Nc2ccccc2)OCCCC[C@H](C)Oc2ccc(NC(=O)C3CCCCC3)cc2C1=O	inactive	inactive	inactive
C[C@@H]1CCCCO[C@H](CN(C)C(=O)Cc2ccccc2)[C@H](C)CN([C@@H](C)CO)C(=O)c2cc(NC(=O)Nc3ccc(C(F)(F)F)cc3)ccc2O1	active	inactive	inactive
CN1CCC[C@H](C(=O)O)C1	inactive	inactive	inactive
COc1ccc(S(=O)(=O)Nc2ccc3c(c2)C(=O)N([C@@H](C)CO)C[C@H](C)[C@@H](CN(C)C(=O)NC(C)C)O3)cc1	inactive	inactive	inactive
C[C@H](CO)N1C[C@H](C)[C@H](CN(C)Cc2ccccc2)OCCCC[C@H](C)Oc2ccc(NC(=O)Nc3ccccc3)cc2C1=O	inactive	inactive	inactive
Cc1ccc(S(=O)(=O)N2C[C@@H](O)COC[C@@H]3O[C@H](CC(=O)NCc4ccc5c(c4)OCO5)CC[C@H]32)cc1	inactive	inactive	inactive
C[C@H](CO)N1C[C@H](C)[C@@H](CN(C)Cc2ccc(C(F)(F)F)cc2)Oc2ccc(NC(=O)Cc3cn(C)c4ccccc34)cc2CC1=O	inactive	inactive	inactive
C[C@@H](N)c1ccc(F)cc1F	inactive	inactive	inactive
Cc1noc(C)c1S(=O)(=O)Nc1ccc2c(c1)C(=O)N([C@H](C)CO)C[C@@H](C)[C@H](CN(C)S(=O)(=O)c1cn(C)cn1)O2	inactive	inactive	inactive
N[C@H]1CCN(c2ccc(C(F)(F)F)cn2)C1	inactive	inactive	inactive
C[C@H](CO)N1C[C@H](C)[C@H](CN(C)C)Oc2ccc(NS(=O)(=O)c3ccc(Cl)cc3)cc2CC1=O	inactive	inactive	inactive
